Lines with a small IC50 respond at low doses; a fit beyond the top or the lowest dose is shown as a bound at that dose. AUC sums up the same curve from the lowest dose to the 256-fold higher top dose; it is 1 without any effect and falls as sensitivity rises. For some of these results: The top dose, if marked as inferred, was calculated from the reported fits.
Key:
Experiment in all cases: Viability of human cancer cell lines after 72 h of drug (GDSC screen)
[1] = compound: O=C(NC1CCNCC1)c1n[nH]cc1NC(=O)c1c(Cl)cccc1Cl [AT-7519]; settings: top dose 10.24 µM; top dose inferred
Protocol: (§1)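 Human cancer cell lines in 384-well plates, medium with 10% serum, drug for 72 h over a 256-fold dose range (nine 2-fold or five 4-fold steps up to the top dose). Adherent lines were fixed and stained with the nucleic acid dye Syto60, suspension lines read with resazurin; signal relative to control wells, capped at 0 and 100%. One two-parameter sigmoid per drug and line, fitted in a mixed model over all curves with the slope shared within a line.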

[2] = compound: Cc1cc([N+](=O)[O-])ccc1NS(=O)(=O)c1cc(Cl)ccc1Cl [FH535]; settings: top dose 32 µM; top dose inferred
Protocol: as §1

[3] = compound: Cc1n[nH]c2ccc(-c3cncc(OC[C@@H](N)Cc4c[nH]c5ccccc45)c3)cc12 [A-443654]; settings: top dose 1.024 µM; top dose inferred
Protocol: as §1

[4] = compound: COc1cc(N2CCN(C)CC2)ccc1Nc1nc(N)c(C(=O)c2c(Cl)cccc2Cl)s1 [XMD14-99]; settings: top dose 10.24 µM; top dose inferred
Protocol: as §1

[5] = compound: Cc1nc(Nc2ncc(C(=O)Nc3c(C)cccc3Cl)s2)cc(N2CCN(CCO)CC2)n1 [Dasatinib]; settings: top dose 1.28 µM
Protocol: as §1

Cell Line	AUC [1]	IC50 [1] [nM]	AUC [2]	IC50 [2] [nM]	AUC [3]	IC50 [3] [nM]	AUC [4]	IC50 [4] [nM]	AUC [5]	IC50 [5] [nM]
COR-L279 (small cell lung carcinoma, suspension)	0.447	465	0.937	> 32000	0.821	510	0.972	> 10200	0.969	> 1280
CP67-MEL (melanoma, adherent)	–	–	–	–	0.716	424	–	–	0.636	254
CPC-N (small cell lung carcinoma, suspension)	0.518	721	0.893	> 32000	0.889	> 1020	0.982	> 10200	0.972	> 1280
CTB-1 (B-cell lymphoma, suspension)	0.706	3040	0.787	19700	0.781	596	0.943	> 10200	0.902	> 1280
CTV-1 (acute myeloid leukaemia, suspension)	0.21	114	0.663	5110	0.714	223	0.948	> 10200	0.014	< 5
Calu-6 (lung adenocarcinoma, adherent)	0.865	> 10200	0.408	1080	0.637	162	0.978	> 10200	0.831	977
D-336MG (glioma, adherent)	0.444	432	–	–	0.79	604	0.964	> 10200	0.244	11.5
DMS-79 (small cell lung carcinoma, suspension)	0.852	10000	0.979	> 32000	0.804	613	0.985	> 10200	0.956	> 1280
DND-41 (T-cell leukaemia, suspension)	0.215	107	0.733	8360	0.749	298	0.874	7980	0.898	> 1280
DOHH-2 (B-cell lymphoma, suspension)	–	–	0.69	6710	0.703	235	–	–	0.311	23.9
DSH1 (bladder, adherent)	0.622	1370	0.398	1060	0.733	284	0.984	> 10200	0.644	196
EB-3 (Burkitt lymphoma, suspension)	0.338	210	0.565	3100	0.745	368	0.902	> 10200	0.789	670
EC-GI-10 (oesophagus, adherent)	0.955	> 10200	0.84	21700	0.888	> 1020	0.989	> 10200	0.981	> 1280
EHEB (lymphoid neoplasm, suspension)	–	–	0.754	15500	0.762	535	–	–	0.813	1140
EJM (lymphoid neoplasm, semi-adherent)	0.634	1410	0.66	5120	0.806	424	0.979	> 10200	0.97	> 1280
EKVX (lung adenocarcinoma, adherent)	0.871	> 10200	0.667	10000	0.89	> 1020	0.969	> 10200	0.97	> 1280
EM-2 (chronic myeloid leukaemia, suspension)	0.388	303	0.792	16600	0.741	348	0.981	> 10200	0.106	< 5
ES4 (Ewing sarcoma, adherent)	0.689	2350	0.693	–	0.468	51.5	0.926	> 10200	0.795	696
ES5 (Ewing sarcoma, adherent)	0.362	251	0.74	10900	0.955	> 1020	0.894	> 10200	0.981	> 1280
EW-12 (Ewing sarcoma, suspension)	–	–	–	–	0.978	> 1020	–	–	0.977	> 1280
HCC1187 (breast, suspension)	–	–	0.783	12800	0.87	877	0.981	> 10200	0.931	> 1280
IM-9 (myeloma, suspension)	–	–	0.822	15400	0.98	> 1020	–	–	0.992	> 1280
KP-N-RT-BM-1 (neuroblastoma, semi-adherent)	–	–	–	–	0.784	584	–	–	0.975	> 1280
LB647-SCLC (small cell lung carcinoma, semi-adherent)	0.718	2880	0.806	18700	0.673	207	–	–	0.978	> 1280
NCI-H446 (small cell lung carcinoma, semi-adherent)	–	–	0.902	> 32000	0.707	258	0.967	> 10200	0.857	1160
NCI-H1963 (small cell lung carcinoma, suspension)	–	–	0.711	7190	0.791	397	–	–	0.991	> 1280
NK-92MI (lymphoid neoplasm, suspension)	0.926	> 10200	0.689	6490	0.886	996	–	–	0.525	93.3
RPMI-8226 (myeloma, suspension)	–	–	0.718	7490	0.796	410	0.951	> 10200	0.988	> 1280
SR (lymphoid neoplasm, suspension)	–	–	0.663	5380	0.679	190	0.537	797	0.963	> 1280

From the supplement of paper PMC4967469
